Experimental data published in the supplement of paper PMC4604168 (melanoma cell lines).
Some of the results follow. Many values rest on one well or one pass, so single values are uncertain.

Legend:
Assay in all cases: cell count relative to DMSO control; melanoma cells; higher = more viable cells
Details in all cases: library dose: low library concentration; 72 h
[1] = test system: COLO792
[2] = test system: COLO800
[3] = test system: COLO829
[4] = test system: G361
[5] = test system: IPC-298
[6] = test system: IST-MEL1
[7] = test system: LB2518-MEL
[8] = test system: LOXIMVI
[9] = test system: MEL-HO
[10] = test system: MZ2-MEL
[11] = test system: MeWo
[12] = test system: RPMI7951
[13] = test system: RVH-421
[14] = test system: SkMel28
[15] = test system: SkMel2
[16] = test system: SkMel30
[17] = test system: SkMel5
[18] = test system: UACC257
[19] = test system: UACC62
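Further: cell number obtained by counting DAPI-stained nuclei in high-throughput microscope images with image analysis software, screen run in 1,536-well plates.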

Row | Compound | cell count [1] [%] | cell count [2] [%] | cell count [3] [%] | cell count [4] [%] | cell count [5] [%] | cell count [6] [%] | cell count [7] [%] | cell count [8] [%] | cell count [9] [%] | cell count [10] [%] | cell count [11] [%] | cell count [12] [%] | cell count [13] [%] | cell count [14] [%] | cell count [15] [%] | cell count [16] [%] | cell count [17] [%] | cell count [18] [%] | cell count [19] [%]
1 | CC1(C)CCC(c2ccc(Cl)cc2)=C(CN2CCN(c3ccc(C(=O)NS(=O)(=O)c4ccc(N[C@H](CCN5CCOCC5)CSc5ccccc5)c(S(=O)(=O)C(F)(F)F)c4)cc3)CC2)C1 + Oc1nc(-c2ccc(C(F)(F)F)cc2)nc2c1CSCC2 [XAV939] (first compound 0.4 µM, partner dose 2 µM) | 43.6 | 72.5 | 97.5 | 82 | 95.7 | 74.4 | 75.6 | 64.5 | 85.1 | 90.5 | 76.9 | 49.5 | 89.8 | 111 | 82.7 | 92.4 | 65.6 | 67.2 | 94.4
2 | CC1(C)CCC(c2ccc(Cl)cc2)=C(CN2CCN(c3ccc(C(=O)NS(=O)(=O)c4ccc(N[C@H](CCN5CCOCC5)CSc5ccccc5)c(S(=O)(=O)C(F)(F)F)c4)cc3)CC2)C1 + O=C1NC(=O)/C(=C/c2ccc(-c3ccc(F)cc3O)o2)S1 [AS252424] (first compound 0.4 µM, partner dose 1 µM) | 54.8 | 55.1 | 108 | 82.7 | 95.2 | 78.5 | 80.1 | 42.9 | 61.6 | 93.4 | 73.7 | 53.9 | 73.9 | 83.5 | 91.2 | 65.9 | 75.6 | 92.8 | 94.2
3 | Cc1ccc(Nc2nccc(N(C)c3ccc4c(C)n(C)nc4c3)n2)cc1S(N)(=O)=O [Pazopanib] + NC(=O)Nc1cc(-c2cccc(F)c2)sc1C(=O)N[C@H]1CCCNC1 [AZD7762] (first compound 0.4 µM, partner dose 0.02 µM) | 104 | 81.2 | 90.7 | 103 | 84.9 | 116 | 103 | 71.4 | 114 | 80.1 | 102 | 88.1 | 106 | 145 | 103 | 89.7 | 103 | 118 | 111
4 | Cc1ccc(Nc2nccc(N(C)c3ccc4c(C)n(C)nc4c3)n2)cc1S(N)(=O)=O [Pazopanib] + COc1cc2ncnc(Nc3ccc(Oc4ccccc4)cc3)c2cc1OC [SrcI1] (first compound 0.4 µM, partner dose 2 µM) | 93.2 | 152 | 120 | 84.6 | 82.3 | 95.9 | 120 | 92.8 | 105 | 79.5 | 114 | 101 | 111 | 83.2 | 94.3 | 76.4 | 96.8 | 96.5 | 112
5 | CC1(C)CCC(c2ccc(Cl)cc2)=C(CN2CCN(c3ccc(C(=O)NS(=O)(=O)c4ccc(N[C@H](CCN5CCOCC5)CSc5ccccc5)c(S(=O)(=O)C(F)(F)F)c4)cc3)CC2)C1 + CN(NC(=O)CC(=O)NN(C)C(=S)c1ccccc1)C(=S)c1ccccc1 [STA4783] (first compound 0.4 µM, partner dose 0.006 µM) | 51.5 | 33 | 69.7 | 85.6 | 99.5 | 62.3 | 88.2 | 31.3 | 64.4 | 91 | 84.7 | 57.7 | 95.2 | 82.1 | 95.2 | 75.1 | 83.4 | 77.4 | 103
6 | Cc1ccc(Nc2nccc(N(C)c3ccc4c(C)n(C)nc4c3)n2)cc1S(N)(=O)=O [Pazopanib] + C[C@@H]1CCN(C(=O)CC#N)C[C@@H]1N(C)c1ncnc2[nH]ccc12 [CP690550] (first compound 0.4 µM, partner dose 1 µM) | 97.4 | 89.8 | 118 | 101 | 79.6 | 102 | 104 | 120 | 101 | 76.4 | 98.4 | 86.9 | 86.6 | 96 | 92.9 | 85.8 | 93.3 | 90.7 | 98.7
7 | Cc1ccc(Nc2nccc(N(C)c3ccc4c(C)n(C)nc4c3)n2)cc1S(N)(=O)=O [Pazopanib] + Cc1cc(N2CCOCC2)cc2[nH]c(-c3c(NC[C@@H](O)c4cccc(Cl)c4)cc[nH]c3=O)nc12 [BMS536924] (first compound 0.4 µM, partner dose 0.2 µM) | 72.5 | 43.3 | 96 | 85.2 | 83.2 | 98.2 | 117 | 75 | 91.3 | 89.5 | 93.9 | 101 | 103 | 98.7 | 93.6 | 62.2 | 89.4 | 105 | 93.3
8 | O=C(/C=C/c1cccnc1)NCCCCC1CCN(C(=O)c2ccccc2)CC1 + O=C1NC(=O)/C(=C/c2ccc(-c3ccc(F)cc3O)o2)S1 [AS252424] (first compound 0.01 µM, partner dose 1 µM) | 39.8 | 15.2 | 64.3 | 6.71 | 39.5 | 70.5 | 77.6 | 71.8 | 63.8 | 40.6 | 87.1 | 106 | 45.1 | 126 | 45.5 | 71.2 | 95.5 | 115 | 106
